# From publication PMC13423814
# Certain results were filed several times, with different values. The other results are left out here. The source may hold further records. Some protein pairs were linked at several places, one record each.
# How the values were obtained:
# Conditions in all cases: DSSO, in cells
# [1] = target: GALNT2 (UniProt Q10471)
# [2] = target: TMED4 (UniProt Q7Z7H5)
# [3] = target: AATF (UniProt Q9NY61)
# [4] = target: FDXR (UniProt P22570)
# [5] = target: HSPA9 (UniProt P38646)
# [6] = target: MDH2 (UniProt P40926)
# [7] = target: COPA (UniProt P53621)
# [8] = target: CALR (UniProt P27797)
# [9] = target: BOP1 (UniProt Q14137)
# [10] = target: FLOT2 (UniProt Q14254)
# [11] = target: AP2M1 (UniProt Q96CW1)
# [12] = target: DDX23 (UniProt Q9BUQ8)
# [13] = target: PRPF31 (UniProt Q8WWY3)
# [14] = target: WBP11 (UniProt Q9Y2W2)
# [15] = target: CAVIN1 (UniProt Q6NZI2)
# [16] = target: DCTN2 (UniProt Q13561)
# [17] = target: ALDH2 (UniProt P05091)
# [18] = target: HSPE1 (UniProt P61604)
# [19] = target: EEF1D (UniProt P29692)
# [20] = target: BCLAF1 (UniProt Q9NYF8)
# [21] = target: CHTOP (UniProt Q9Y3Y2)
# [22] = target: THRAP3 (UniProt Q9Y2W1)
# [23] = target: CCT3 (UniProt P49368)
# [24] = target: CCT6A (UniProt P40227)
# [25] = target: TCP1 (UniProt P17987)
# [26] = target: DDX46 (UniProt Q7L014)
# [27] = target: COA3 (UniProt Q9Y2R0)
# [28] = target: CCT2 (UniProt P78371)
# [29] = target: CCT8 (UniProt P50990)
# [30] = target: DDX27 (UniProt Q96GQ7)
# [31] = target: ENO1 (UniProt P06733)
# [32] = target: CCT4 (UniProt P50991)
# [33] = target: CCT7 (UniProt Q99832)
# [34] = target: ECH1 (UniProt Q13011)
# [35] = target: IDH3A (UniProt P50213)
# [36] = target: LRPPRC (UniProt P42704)
# [37] = target: PITRM1 (UniProt Q5JRX3)
# [38] = target: TRAP1 (UniProt Q12931)
# [39] = target: TUFM (UniProt P49411)
# COX5B, sequence (P10606 whole entry): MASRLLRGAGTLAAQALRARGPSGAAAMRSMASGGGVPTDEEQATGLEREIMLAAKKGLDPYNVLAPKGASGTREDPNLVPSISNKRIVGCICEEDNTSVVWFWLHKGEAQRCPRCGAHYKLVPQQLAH
# GOT2, sequence (P00505 whole entry): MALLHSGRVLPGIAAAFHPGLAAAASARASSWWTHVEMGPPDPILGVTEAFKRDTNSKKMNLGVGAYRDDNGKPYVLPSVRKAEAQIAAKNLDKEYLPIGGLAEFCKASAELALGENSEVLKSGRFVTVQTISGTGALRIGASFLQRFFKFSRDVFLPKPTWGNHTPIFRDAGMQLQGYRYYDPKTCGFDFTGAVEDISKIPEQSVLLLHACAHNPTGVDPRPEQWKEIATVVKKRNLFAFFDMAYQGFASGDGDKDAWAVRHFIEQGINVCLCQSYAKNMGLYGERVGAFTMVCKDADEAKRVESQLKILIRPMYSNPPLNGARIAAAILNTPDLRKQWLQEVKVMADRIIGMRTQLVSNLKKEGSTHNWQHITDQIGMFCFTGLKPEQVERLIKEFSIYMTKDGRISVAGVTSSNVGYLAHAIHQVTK
# ACTR1A, sequence (P61163 whole entry): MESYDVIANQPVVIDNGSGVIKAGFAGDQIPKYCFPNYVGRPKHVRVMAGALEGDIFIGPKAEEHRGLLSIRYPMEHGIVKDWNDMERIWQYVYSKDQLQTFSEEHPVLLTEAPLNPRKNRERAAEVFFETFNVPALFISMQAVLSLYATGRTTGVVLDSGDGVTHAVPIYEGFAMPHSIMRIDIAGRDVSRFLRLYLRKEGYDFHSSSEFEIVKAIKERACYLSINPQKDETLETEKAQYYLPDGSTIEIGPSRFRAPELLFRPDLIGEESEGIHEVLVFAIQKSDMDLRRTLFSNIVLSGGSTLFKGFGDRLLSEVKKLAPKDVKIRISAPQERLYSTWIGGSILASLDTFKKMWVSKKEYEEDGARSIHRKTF
# FLOT1, sequence (O75955 whole entry): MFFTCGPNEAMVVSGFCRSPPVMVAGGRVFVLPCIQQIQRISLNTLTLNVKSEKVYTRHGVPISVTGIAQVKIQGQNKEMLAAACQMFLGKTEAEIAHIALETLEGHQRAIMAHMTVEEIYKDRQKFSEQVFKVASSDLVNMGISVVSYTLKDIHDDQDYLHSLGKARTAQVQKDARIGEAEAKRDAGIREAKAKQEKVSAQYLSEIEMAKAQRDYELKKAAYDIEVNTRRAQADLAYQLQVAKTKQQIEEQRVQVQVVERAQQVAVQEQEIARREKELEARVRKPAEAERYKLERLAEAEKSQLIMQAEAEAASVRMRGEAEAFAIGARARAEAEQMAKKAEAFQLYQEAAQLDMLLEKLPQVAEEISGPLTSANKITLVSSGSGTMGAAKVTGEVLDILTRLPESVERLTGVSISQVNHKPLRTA
# UniProt P78371, sequence (P78371 whole entry): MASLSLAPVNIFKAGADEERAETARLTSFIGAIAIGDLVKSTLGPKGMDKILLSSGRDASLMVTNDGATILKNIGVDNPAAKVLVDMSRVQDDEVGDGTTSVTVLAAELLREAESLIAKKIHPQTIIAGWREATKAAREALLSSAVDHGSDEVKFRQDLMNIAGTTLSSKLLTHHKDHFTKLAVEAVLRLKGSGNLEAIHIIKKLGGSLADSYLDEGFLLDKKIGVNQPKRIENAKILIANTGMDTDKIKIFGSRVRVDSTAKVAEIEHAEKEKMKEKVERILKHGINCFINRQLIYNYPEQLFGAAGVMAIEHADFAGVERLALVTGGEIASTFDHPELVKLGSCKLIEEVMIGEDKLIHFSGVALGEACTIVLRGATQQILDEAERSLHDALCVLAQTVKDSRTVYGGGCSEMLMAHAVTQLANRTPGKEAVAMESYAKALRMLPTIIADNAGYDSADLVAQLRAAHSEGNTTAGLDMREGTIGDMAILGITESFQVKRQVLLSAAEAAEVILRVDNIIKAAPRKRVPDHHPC
# UniProt P50213, sequence (P50213 whole entry): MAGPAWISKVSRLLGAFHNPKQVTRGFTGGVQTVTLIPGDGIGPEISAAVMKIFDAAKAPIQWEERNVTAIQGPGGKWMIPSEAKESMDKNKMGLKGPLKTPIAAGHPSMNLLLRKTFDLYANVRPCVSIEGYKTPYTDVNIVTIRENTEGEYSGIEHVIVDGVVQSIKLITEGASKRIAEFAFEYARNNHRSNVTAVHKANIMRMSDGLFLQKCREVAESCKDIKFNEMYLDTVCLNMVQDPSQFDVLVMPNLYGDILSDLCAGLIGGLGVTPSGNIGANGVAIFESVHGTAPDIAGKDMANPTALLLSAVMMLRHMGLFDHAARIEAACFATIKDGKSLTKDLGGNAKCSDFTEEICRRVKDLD
# PDCD5, sequence (O14737 whole entry): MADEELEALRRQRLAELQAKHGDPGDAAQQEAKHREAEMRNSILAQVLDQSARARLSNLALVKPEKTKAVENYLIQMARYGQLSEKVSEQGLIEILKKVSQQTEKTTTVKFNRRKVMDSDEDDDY
# UniProt Q9Y3Y2, sequence (Q9Y3Y2 whole entry): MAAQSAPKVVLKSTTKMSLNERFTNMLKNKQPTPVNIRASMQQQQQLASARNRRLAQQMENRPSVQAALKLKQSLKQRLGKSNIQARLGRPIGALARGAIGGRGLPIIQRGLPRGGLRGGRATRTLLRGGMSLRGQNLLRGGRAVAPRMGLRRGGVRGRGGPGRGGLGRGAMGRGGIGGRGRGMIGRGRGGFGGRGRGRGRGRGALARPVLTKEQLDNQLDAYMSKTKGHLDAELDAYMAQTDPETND
# EEF1G, sequence (P26641 whole entry): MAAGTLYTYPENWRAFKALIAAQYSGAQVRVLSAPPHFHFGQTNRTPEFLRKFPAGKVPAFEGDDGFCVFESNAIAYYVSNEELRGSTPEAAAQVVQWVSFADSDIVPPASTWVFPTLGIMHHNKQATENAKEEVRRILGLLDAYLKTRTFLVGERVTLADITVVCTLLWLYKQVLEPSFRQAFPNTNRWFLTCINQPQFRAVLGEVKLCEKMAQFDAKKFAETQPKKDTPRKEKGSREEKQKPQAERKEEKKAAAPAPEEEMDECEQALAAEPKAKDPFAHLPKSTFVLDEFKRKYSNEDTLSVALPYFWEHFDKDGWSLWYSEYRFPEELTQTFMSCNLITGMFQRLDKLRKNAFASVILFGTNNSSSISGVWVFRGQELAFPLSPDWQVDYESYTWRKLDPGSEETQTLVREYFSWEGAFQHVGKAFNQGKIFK
# UniProt Q7L014, sequence (Q7L014 whole entry): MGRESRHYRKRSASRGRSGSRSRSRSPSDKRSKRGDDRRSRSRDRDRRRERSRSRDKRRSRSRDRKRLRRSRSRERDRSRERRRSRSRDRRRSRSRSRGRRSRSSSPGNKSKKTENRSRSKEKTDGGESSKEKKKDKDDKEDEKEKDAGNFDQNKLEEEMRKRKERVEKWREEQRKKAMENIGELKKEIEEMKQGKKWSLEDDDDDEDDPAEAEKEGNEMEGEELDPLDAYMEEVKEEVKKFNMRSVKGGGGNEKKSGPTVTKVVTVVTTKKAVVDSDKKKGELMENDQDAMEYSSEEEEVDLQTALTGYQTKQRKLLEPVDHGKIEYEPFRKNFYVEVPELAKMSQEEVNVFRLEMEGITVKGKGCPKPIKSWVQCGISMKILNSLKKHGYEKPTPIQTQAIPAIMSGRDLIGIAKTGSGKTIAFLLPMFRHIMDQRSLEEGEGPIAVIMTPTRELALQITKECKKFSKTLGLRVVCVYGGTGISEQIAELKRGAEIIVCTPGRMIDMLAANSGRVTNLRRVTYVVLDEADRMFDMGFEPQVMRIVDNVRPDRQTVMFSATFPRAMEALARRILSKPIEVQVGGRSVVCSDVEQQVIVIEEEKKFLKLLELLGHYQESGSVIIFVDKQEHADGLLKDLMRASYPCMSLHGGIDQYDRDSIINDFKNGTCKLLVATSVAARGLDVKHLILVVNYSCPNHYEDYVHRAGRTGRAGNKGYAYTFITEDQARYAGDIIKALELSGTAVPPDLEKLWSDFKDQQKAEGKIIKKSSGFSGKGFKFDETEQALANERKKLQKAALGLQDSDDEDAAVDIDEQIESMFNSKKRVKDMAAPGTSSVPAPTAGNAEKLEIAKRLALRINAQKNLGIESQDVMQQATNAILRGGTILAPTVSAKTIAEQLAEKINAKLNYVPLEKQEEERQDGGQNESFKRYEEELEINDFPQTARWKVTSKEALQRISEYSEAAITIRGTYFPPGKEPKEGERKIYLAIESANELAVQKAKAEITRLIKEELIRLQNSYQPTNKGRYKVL
# UniProt P49368, sequence (P49368 whole entry): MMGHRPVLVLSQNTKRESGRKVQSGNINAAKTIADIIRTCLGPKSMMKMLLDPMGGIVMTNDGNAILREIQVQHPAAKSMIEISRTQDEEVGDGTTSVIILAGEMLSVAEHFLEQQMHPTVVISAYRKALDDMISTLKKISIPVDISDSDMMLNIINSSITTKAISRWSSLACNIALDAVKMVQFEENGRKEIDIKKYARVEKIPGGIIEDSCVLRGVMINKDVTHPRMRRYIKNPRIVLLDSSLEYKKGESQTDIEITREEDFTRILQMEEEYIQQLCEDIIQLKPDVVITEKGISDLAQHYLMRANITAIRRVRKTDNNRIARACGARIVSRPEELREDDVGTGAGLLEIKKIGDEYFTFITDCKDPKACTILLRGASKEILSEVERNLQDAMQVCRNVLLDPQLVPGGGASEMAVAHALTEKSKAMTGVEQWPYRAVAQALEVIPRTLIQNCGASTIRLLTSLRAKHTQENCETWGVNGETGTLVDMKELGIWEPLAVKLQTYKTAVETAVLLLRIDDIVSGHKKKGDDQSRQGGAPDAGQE
# UniProt Q9Y2R0, sequence (Q9Y2R0 whole entry): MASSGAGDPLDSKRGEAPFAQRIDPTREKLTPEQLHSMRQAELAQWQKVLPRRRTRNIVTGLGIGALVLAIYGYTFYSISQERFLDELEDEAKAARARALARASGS
# UniProt P61604, sequence (P61604 whole entry): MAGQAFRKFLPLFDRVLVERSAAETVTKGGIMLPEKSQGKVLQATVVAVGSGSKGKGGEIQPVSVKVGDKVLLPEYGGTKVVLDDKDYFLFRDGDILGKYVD
substance,measurement,setting,value
"TMED10, P49755",cross-linked residues,[1],K133 - K103 and K145 - K103
same,cross-linked residues,[2],K140 - K152 and K145 - K152
"NGDN, Q8NEJ9",cross-linked residues,[3],K38 - K228 and K98 - K375 and K98 - K380 and K112 - K223 and K115 - T476
"HSPD1, P10809",cross-linked residues,[4],K133 - K287 and K191 - K287
same,cross-linked residues,[5],K31 - K206 and K31 - K625 and S70 - K625 and K75 - K625 and K75 - K671 and K125 - K206 and K133 - K394 and K133 - K625 and K473 - K138
same,cross-linked residues,[6],K91 - K239 and K130 - K239 and K133 - K239 and K191 - K239 and K191 - K301 and K359 - K239 and K364 - K239 and K469 - K239 and K473 - K239
"COPB1, P53618",cross-linked residues,[7],K949 - K487 and K949 - K631
"SERPINE1, P05121",cross-linked residues,[8],K145 - K153 and K177 - K153
"PES1, O00541",cross-linked residues,[9],K56 - K339 and K564 - K339
"FLOT1, O75955",cross-linked residues,[10],K184 - K169 and K219 - K211 and K285 - K280 and K340 - K350 and K422 - K350
"AP2B1, P63010",cross-linked residues,[11],K31 - K139 and K282 - K281
"PRPF8, Q6P2Q9",cross-linked residues,[12],K278 - K259 and K2249 - K204
same,cross-linked residues,[13],K847 - K417 and K1831 - K422
same,cross-linked residues,[14],K2031 - K46 and T2033 - K51
"CAVIN2, O95810",cross-linked residues,[15],K99 - K98 and K102 - K98 and K120 - K122
"ACTR1A, P61163",cross-linked residues,[16],K361 - K65 and K361 - K125 and K361 - K132
"GOT2, P00505",cross-linked residues,[17],K150 - T356 and K363 - K368
same,cross-linked residues,[18],K90 - K8 and K90 - K56 and K363 - K8 and K363 - K56
same,cross-linked residues,[6],K82 - K239 and K150 - K239 and K338 - K239 and K363 - K185 and K363 - K239 and K363 - K301
"EEF1G, P26641",cross-linked residues,[19],K52 - K59 and K219 - K17 and K227 - K17 and K285 - K117 and K434 - K17 and K434 - K117
"ERH, P84090",cross-linked residues,[20],T11 - K580 and T11 - K593 and T11 - K622 and K90 - K676
same,cross-linked residues,[21],T11 - K8 and T11 - K12 and T11 - K16 and K41 - K12 and K90 - K30
same,cross-linked residues,[22],T11 - K551 and T11 - K602
"PDCD5, O14737",cross-linked residues,[23],K20 - K21 and K20 - K249 and K97 - K527 and K97 - K529 and K98 - K527
same,cross-linked residues,[24],K20 - K5 and K20 - K530 and K33 - K530
same,cross-linked residues,[25],K105 - K532 and K105 - K538
"SF3B1, O75533",cross-linked residues,[26],S332 - K316 and K333 - K316 and K493 - K248
"COX5B, P10606",cross-linked residues,[27],S82 - T31 and S84 - K29 and K86 - K29
"CCT4, P50991",cross-linked residues,[28],K21 - K13 and K21 - K119 and K21 - K522 and K29 - K13 and K29 - K119 and K139 - K46 and K292 - K272 and K531 - K46
"CCT6A, P40227",cross-linked residues,[23],K5 - T14 and K5 - K78 and K10 - S11 and K10 - K21 and K10 - K31 and K10 - K78 and K530 - K78 and K530 - K527
same,cross-linked residues,[29],K5 - K20 and K10 - K7 and K10 - K16 and K10 - K20 and K199 - K400 and K251 - K270
"CMC1, Q7Z7K0",cross-linked residues,[27],K15 - K93 and K90 - K93
"RPL35, P42766",cross-linked residues,[30],K35 - K610 and S42 - K625 and K43 - K610
"GAPDH, P04406",cross-linked residues,[31],K215 - K256 and K263 - K420
"CCT5, P48643",cross-linked residues,[28],K42 - K13 and K176 - K135 and K232 - K248 and K232 - K250 and K265 - T242 and Y274 - K284 and K275 - T246 and K275 - K263 and K392 - K82 and K496 - K135 and K535 - K13
same,cross-linked residues,[32],K42 - K21 and K42 - K126 and K483 - S134
same,cross-linked residues,[33],K368 - K250 and K392 - K250
"ITGB1, P05556",cross-linked residues,[8],K100 - K209 and K202 - K153
"MDH2, P40926",cross-linked residues,[34],K239 - K231 and K239 - K318
same,cross-linked residues,[18],K239 - K8 and K239 - K28 and K239 - K36 and K239 - K56
same,cross-linked residues,[35],K239 - S176 and K239 - K339 and K239 - K343
same,cross-linked residues,[36],K239 - K66 and K239 - K868 and K239 - K1388
same,cross-linked residues,[37],K239 - K41 and K239 - K946
same,cross-linked residues,[38],K239 - K262 and K239 - K324 and K239 - K629 and K239 - K652
same,cross-linked residues,[39],K239 - K91 and K239 - K94
